Experimental data reported in PubChem BioAssay AID588795 (National Center for Advancing Translational Sciences (NCATS), 2011).
The whole screen tested about 390,000 compounds, of which about 1,400 (0.36%) were called active. The shares of active, inactive and inconclusive entries below differ from those in the screen. Calls come from the whole dose curve; as a rule, active = well fitted inhibition curve with a large enough effect; inconclusive = small, poorly fitted or top-dose-only effect; inactive = no such curve, though single readings can be large or run the other way. Potencies of inconclusive entries are doubtful fits and often do not repeat.

Target: Flap endonuclease 1 (Homo sapiens) (UniProt P39748)
Assay: qHTS Assay for the Inhibitors of Human Flap endonuclease 1 (FEN1). Note: nearly all actives have a fitted effect of over 65% in size.
Settings: Recombinant FEN1 flap cleavage, fluorescence, 15 min; series mostly up to 114 µM
Summary of the method: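 Nuclease activity of 10 nM FEN1 was measured after 15 min of room-temperature exposure to titrated compounds, by adding 50 nM flap substrate and reading plates at 0 and 15 min.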
Potency is the fitted concentration of half-maximal effect; tags give direction and shape of the fitted curve.

Chain of UniProt P39748 (P39748 whole entry, looked up): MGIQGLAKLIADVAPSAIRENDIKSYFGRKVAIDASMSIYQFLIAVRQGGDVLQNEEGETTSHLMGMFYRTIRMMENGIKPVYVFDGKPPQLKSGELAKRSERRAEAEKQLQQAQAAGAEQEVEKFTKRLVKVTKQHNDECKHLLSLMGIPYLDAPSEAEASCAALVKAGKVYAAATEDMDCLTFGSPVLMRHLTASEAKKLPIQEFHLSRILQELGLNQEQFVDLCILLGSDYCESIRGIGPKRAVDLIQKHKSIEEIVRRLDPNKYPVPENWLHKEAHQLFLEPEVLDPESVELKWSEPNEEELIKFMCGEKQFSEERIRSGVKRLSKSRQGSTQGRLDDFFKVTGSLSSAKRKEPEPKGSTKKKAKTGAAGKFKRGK

| SMILES | Potency |
| --- | --- |
| CCCCn1c(CCc2ccccc2)nc2cc3[nH]c(=O)c(C(C)C)nc3cc21 | inconclusive: 56.2 µM [inhibitor, partial curve, poor fit] |
| CN(C)c1ccc(NC(=O)c2cccc(C(=O)Nc3ccc(N(C)C)cc3)n2)cc1 | inconclusive: 12.6 µM [inhibitor, full curve] |
| COc1cc(/C=C2\SC(=O)N(Cc3ccc(F)cc3)C2=O)cc([N+](=O)[O-])c1O | inconclusive: 56.2 µM [inhibitor, partial curve, poor fit] |
| CC(Oc1ccccc1F)C(=O)Nc1ccc2ccccc2c1 (stereo unspecified) | inconclusive: 79.4 µM [inhibitor, partial curve, poor fit] |
| COc1cccc(CNC(=O)CSc2cc(C)[nH]c(=O)n2)c1 | inactive |
| Cc1ccc2nc(-c3ccc(SCC(=O)N4CCc5ccccc54)nc3)[nH]c2c1 | inactive |
| C#CCOCCOCCOCCNc1nc(N2CCN(C(=O)Cn3cc(CCCCN)nn3)CC2)nc(N2CCN(C(=O)Cn3cc(CCCN=C(N)N)nn3)CC2)n1 | inactive |
| COc1ccc(-c2nc3ccc(NC(C)=O)cc3c(=O)n2Cc2cccc(Cl)c2)cc1COc1ccc(NC(C)=O)cc1 | active: 79.4 µM |
| COc1cc2nc(N3CCCN(C)CC3)nc(NC3CCN(Cc4ccccc4)CC3)c2cc1OC | active: 17.8 µM |
| CC(C)[C@H]1COCCS(=O)(=O)N1Cc1ccccc1-c1ccccc1 | inconclusive: 89.1 µM [inhibitor, partial curve, poor fit] |
| CCN(CC(O)c1cccc(O)c1)C(=O)C12CC3CC(CC(C3)C1)C2 (stereo unspecified) | inconclusive: 89.1 µM [inhibitor, partial curve, poor fit] |
| O=C(c1ccc(F)cc1)N1CCN(Cc2ccccc2)CC1 | inactive |
| CC(=O)Oc1ccc2c(=O)c(Oc3ccccc3)coc2c1OC(C)=O | inconclusive: 56.2 µM [inhibitor, partial curve, poor fit] |
| COc1cccc2sc(N(Cc3cccnc3)C(=O)C3CCCCC3)nc12 | inconclusive: 70.8 µM [inhibitor, partial curve, poor fit] |
| CCOC(=O)C1CCCN(C(=O)c2cc3c(Cl)nc4ccccc4c3s2)C1 (stereo unspecified) | inconclusive: 79.4 µM [inhibitor, partial curve, poor fit] |
| COc1ccc(CCn2c(=S)[nH]c(=O)c3nccnc32)cc1OC | inactive |
| CCOC(=O)C(C)Oc1cccc2c(=O)n(CC(=O)NCc3ccc4c(c3)OCO4)ccc12 (stereo unspecified) | inactive |
| COc1ccc([C@H]2CC(=O)C=C(c3cccc4c3Oc3ccccc3S4)C2)cc1 | inactive |
| COc1cccc(CNc2ncnc3cc(Cl)ccc23)c1 | inactive |
| O=C(OCc1nnc(-c2ccccc2)o1)c1ccc([N+](=O)[O-])s1 | inconclusive: 8.91 µM [inhibitor, partial curve, poor fit] |
| CCc1cc(/C=C/c2ccnc3ccccc23)ccc1N(C)C | inconclusive: 35.5 µM [inhibitor, partial curve, poor fit] |
| CC1=CCC[C@@H]2[C@@](C)(CC/C(C)=C/C(=O)O)[C@H](C)CC[C@@]12C | inconclusive: 89.1 µM [inhibitor, single point] |

| SMILES | Potency |
| --- | --- |
| CCOc1ccc(C(NC(C)=O)c2cc(Cl)c3cccnc3c2O)cc1 (stereo unspecified) | inactive |
| COC(=O)C1=NN(C(=O)c2cccc(Br)c2)C(O)(c2ccc(Cl)cc2)C1 (stereo unspecified) | inconclusive: 70.8 µM [inhibitor, partial curve] |
| COC(=O)CNC(=O)c1cc(-c2ccncc2)nc2c(C)c(Cl)ccc12 | inconclusive: 79.4 µM [inhibitor, single point] |
| CCN(CC)c1ccc(N=C2C=CC(=O)C=C2NC(C)=O)cc1 | inconclusive: 79.4 µM [inhibitor, partial curve] |
| O=C(C1CCCCC1)N(Cc1cccnc1)c1nc2c(F)cccc2s1 | inactive |
| COc1ccc(C(=O)NCC(=O)OCC(=O)Nc2ncc(Cl)cc2Cl)cc1[N+](=O)[O-] | inactive |
| Cc1cc(C)nc(/N=C(\N)Nc2ccc(OCc3ccccc3)cc2)n1 | inconclusive: 79.4 µM [inhibitor, single point] |
| COc1ccc2[nH]c3c(=O)n(/N=C/c4ccc(OC)c(CN5CCCC5)c4)c(C)nc3c2c1 | inconclusive: 39.8 µM [inhibitor, partial curve] |
| COc1cccc(C(=O)C(C#N)=C(SC)SC)c1 | inconclusive: 89.1 µM [inhibitor, single point] |
| CN(CCC#N)C(=O)COC(=O)c1c2c(nc3ccccc13)/C(=C\c1ccco1)CC2 | active: 50.1 µM |
| Cc1ccc(-c2nc(=N)sn2Cc2ccccc2)cc1 | inconclusive: 89.1 µM [inhibitor, single point] |
| O=C1C=CC2=C3c4cc(O)c(O)cc4CC3(O)COC2=C1O (stereo unspecified) | active: 3.55 µM |
| COc1cc(C(c2c(C)[nH][nH]c2=O)c2c(C)[nH][nH]c2=O)cc(OC)c1OC | inactive |
| O=S(=O)(c1ccc(Cl)cc1)N1CCN(c2nc(-c3cccs3)nc3ccccc23)CC1 | inconclusive: 100 µM [inhibitor, single point] |
| Cc1ccccc1Nc1cc(C(=O)NCC2CCCO2)c2ccccc2n1 (stereo unspecified) | inconclusive: 89.1 µM [inhibitor, single point] |
| O=C(NNc1ccccc1Br)C(O)(c1cccc(C(F)(F)F)c1)c1cccc(C(F)(F)F)c1 | inconclusive: 28.2 µM [inhibitor, partial curve, poor fit] |
| NC1CCN(c2c(F)cc3c(=O)c(C(=O)O)cn(C4CC4)c3c2Cl)C1 (stereo unspecified) | active: 31.6 µM |
| NC(N)=Nc1nc(-c2ccccc2)c2cc(F)ccc2n1 | active: 79.4 µM |
| COc1ccc(F)cc1S(=O)(=O)NCc1ccccc1 | inactive |
| CCN1CCN(c2cc(C)c3cc(NC(=O)c4cc(Br)ccc4Cl)ccc3n2)CC1 | inconclusive: 35.5 µM [inhibitor, partial curve, poor fit] |
| CCN1/C(=C/c2ccc3cc(C)ccc3[n+]2C)Sc2ccc3sccc3c21 | inconclusive: 3.16 µM [inhibitor, full curve, poor fit] |
| COc1ccc(NC(=O)c2cc3ccc(O)cc3o/c2=N\O)cc1 | inconclusive: 79.4 µM [inhibitor, partial curve, poor fit] |

| SMILES | Potency |
| --- | --- |
| COc1cc(/C=N\NC(=O)c2ccc(Cn3nc([N+](=O)[O-])c(Cl)c3C)o2)ccc1O | inconclusive: 50.1 µM [inhibitor, partial curve] |
| O=C(Nc1ccc2oc(-c3ccncc3)nc2c1)c1ccc2c(c1)OCO2 | inconclusive: 89.1 µM [inhibitor, single point] |
| Cn1c(=O)c(=O)n(C)c2cc(N3CCCC3)c(NS(=O)(=O)c3ccc(Cl)cc3)cc21 | inconclusive: 44.7 µM [inhibitor, partial curve, poor fit] |
| COc1cc(C(=O)Nc2ccc(-c3cc(C(F)(F)F)nn3-c3ccccc3)cc2)cc(OC)c1OC | inactive |
| O=C(O)CN1C(=O)/C(=C\c2cc(Br)ccc2OCc2ccccc2F)SC1=S | inconclusive: 44.7 µM [inhibitor, partial curve] |
| CC(=O)Nc1ccc2nc3ccccc3nc2c1 | inconclusive: 31.6 µM [inhibitor, partial curve] |
| O=[N+]([O-])c1ccc(O)c2ncccc12 | inconclusive: 2.82 µM [inhibitor, full curve] |
| Cc1cccc(-n2c(O)c(C=Nc3cccc(O)c3)c3ccccc3c2=O)n1 | inconclusive: 89.1 µM [inhibitor, partial curve, poor fit] |
| O=S(=O)(NCc1ccccc1)c1ccc2[nH]c3c(c2c1)CCCCC3 | inconclusive: 17.8 µM [inhibitor, partial curve, poor fit] |
| Nc1ccc(Nc2ccccc2)c(S(=O)(=O)O)c1 | inactive |
| CCOC(=O)c1c(CSC(=N)N)n(-c2ccc(C)cc2)c2cc(Br)c(OC(C)=O)cc12 | inconclusive: 50.1 µM [inhibitor, partial curve, poor fit] |
| Nc1c(Br)cc2c([nH]c(=O)c3ccccc32)c1Br | inactive |
| O=C1CCc2cc(-c3csc(-c4ccc(O)cc4)n3)ccc2N1 | inactive |
| Cc1ccc(-c2cc(-c3ccccc3)nc(NN)n2)cc1 | inconclusive: 100 µM [inhibitor, partial curve, poor fit] |
| Cc1cc(O)c(C(=O)c2cnc3c(c2)COc2ccccc2-3)cc1Cl | inconclusive: 79.4 µM [inhibitor, partial curve] |
| O=C(O)c1ccccc1NS(=O)(=O)c1ccc(NN=Cc2ccc(F)cc2)c([N+](=O)[O-])c1 | inactive |
| Cc1ccc(C)c(SCC(=O)OCC(=O)c2ccco2)c1 | inconclusive: 89.1 µM [inhibitor, partial curve, poor fit] |
| CN(C)CCCNc1nc(-c2ccccc2)nc2ccccc12 | inactive |
| CCc1ccc(OCCCn2c(CCCNC(=O)C3CCCCC3)nc3ccccc32)cc1 | inactive |
| CC(=O)O[C@H]1CC2(C)[C@@H](C[C@@H](O)[C@H]3[C@@]4(C)CC[C@@H](O)[C@@H](C)[C@@H]4CC[C@@]32C)C1=C(CCC=C(C)C)C(=O)O (stereo partly specified) | inconclusive: 26.7 µM [inhibitor, single point] |
| COc1ccc(C2c3ccc4ccccc4c3Oc3ncn(CCCO)c(=N)c32)cc1OC (stereo unspecified) | inconclusive: 70.8 µM [inhibitor, single point] |
| CCc1ccccc1NC(=O)/C(=C/c1ccco1)c1ccccc1 | inconclusive: 89.1 µM [inhibitor, partial curve, poor fit] |
